This is an account of results in the supplement of paper PMC11741623.

The list shows a part of the results. Interaction screen of human proteins with wild-type SARS-CoV-2 proteins by split-DHFR complementation in yeast, 1 µg/mL methotrexate. Value = fitness of the pair (three or more lineages) minus that of the viral protein without a human partner, on a scale set by negative (0) and fused positive (1) controls, mean of up to three cultures; higher = more likely to interact. Active = false discovery rate below 0.05 (one-sided t-test) in at least one culture. Nearly all pairs are not hits, and differences among them are mostly noise (correlation between cultures about 0.3); most hits were seen in one culture only. Human sequences are the Swiss-Prot entries looked up by gene name; the clone may be another isoform. NSP2 values were corrected by the authors for a growth advantage. Listed are human proteins with a hit and a random twelfth of the others.

The labels stand for the following.
B1: FPR3, P25089 (protein)
chain: METNFSIPLNETEEVLPEPAGHTVLWIFSLLVHGVTFVFGVLGNGLVIWVAGFRMTRTVNTICYLNLALADFSFSAILPFRMVSVAMREKWPFGSFLCKLVHVMIDINLFVSVYLITIIALDRCICVLHPAWAQNHRTMSLAKRVMTGLWIFTIVLTLPNFIFWTTISTTNGDTYCIFNFAFWGDTAVERLNVFITMAKVFLILHFIIGFSVPMSIITVCYGIIAAKIHRNHMIKSSRPLRVFAAVVASFFICWFPYELIGILMAVWLKEMLLNGKYKIILVLINPTSSLAFFNSCLNPILYVFMGRNFQERLIRSLPTSLERALTEVPDSAQTSNTDTTSASPPEETELQAM
B2: DDAH1, O94760 (protein)
chain: MAGLGHPAAFGRATHAVVRALPESLGQHALRSAKGEEVDVARAERQHQLYVGVLGSKLGLQVVELPADESLPDCVFVEDVAVVCEETALITRPGAPSRRKEVDMMKEALEKLQLNIVEMKDENATLDGGDVLFTGREFFVGLSKRTNQRGAEILADTFKDYAVSTVPVADGLHLKSFCSMAGPNLIAIGSSESAQKALKIMQQMSDHRYDKLTVPDDIAANCIYLNIPNKGHVLLHRTPEEYPESAKVYEKLKDHMLIPVSMSELEKVDGLLTCCSVLINKKVDS
B3: TBCA, O75347 (protein)
chain: MADPRVRQIKIKTGVVKRLVKEKVMYEKEAKQQEEKIEKMRAEDGENYDIKKQAEILQESRMMIPDCQRRLEAAYLDLQRILENEKDLEEAEEYKEARLVLDSVKLEA
B4: PCDHB3, Q9Y5E6 (protein)
chain: MEAGGERFLRQRQVLLLFVFLGGSLAGSESRRYSVAEEKEKGFLIANLAKDLGLRVEELAARGAQVVSKGNKQHFQLSHQTGDLLLNEKLDREELCGPTEPCILHFQILLQNPLQFVTNELRIIDVNDHSPVFFENEMHLKILESTLPGTVIPLGNAEDLDVGRNSLQNYTITPNSHFHVLTRSRRDGRKYPELVLDKALDPEEQPELSLTLTALDGGSPPRSGTAQINIQVLDINDNAPEFAQPLYEVAVLENTPVNSVIVTVSASDLDTGSFGTISYAFFHASEEIRKTFQLNPITGDMQLVKYLNFEAINSYEVDIEAKDGGGLSGKSTVIVQVVDVNDNPPELTLSSVNSPIPENSGETVLAVFSVSDLDSGDNGRVMCSIENNLPFFLKPSVENFYTLVSEGALDRETRSEYNITITITDLGTPRLKTKYNITVLVSDVNDNAPAFTQISYTLFVRENNSPALHIGSVSATDRDSGTNAQVTYSLLPPQDPHLPLSSLVSINADNGHLFALRSLDYEALQAFEFRVGATDRGSPALSSEALVRVLVLDANDNSPFVLYPLQNGSAPCTELVPRAAEPGYLVTKVVAVDGDSGQNAWLSYQLLKATEPGLFGVWAHNGEVRTARLLSERDAAKHRLVVLVKDNGEPPRSATATLHVLLVDGFSQPYLPLPEAAPAQAQADLLTVYLVVALASVSSLFLFSVLLFVAVRLCRRSRAASVGRCSVPEGPFPGQMVDVSGTGTLSQSYQYEVCLTGGSGTNEFKFLKPIIPNFVAQGAERVSEANPSFRKSFEFS
B5: CCDC42, Q96M95 (protein)
chain: MSLGIMEEEDLAEYFRLQYGERLLQMLQKLPNVEGASESPSIWLLEKKKETEIMHQTMVQKKKMFQRRMETLNLRWEELGVKEAQLKAHIQKSEQFIQENDQKRIRAMKKANKERELKCQHMQELTKRKQEMVALRLEHQRLSAKLKDYYIFNKYLEKVVENSEFEEIHEVIARYKTLVSMRHDLMQSAQEGQEKIERAKARLARYMEEKDDEILQQNNELARLQMRFDRARSNVIFWESRWAHIQNTAAKKTLLLGTIKMATLNLFQIVSKHLKEVTEVALEDTHKQLDMIQQFIQDRSDIWAEVKKKEQQRVRI

One experiment addresses SARS-CoV-2 NSP10. As to the kind of experiment: yeast fitness gain over the viral ORF with no human partner (scaled fitness); higher = more likely to interact. The method, then: (§1)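 Split mouse DHFR complementation in pooled diploid yeast: human ORFeome clones carry one fragment and viral ORFs the other; barcoded lineages compete in 1 µg/mL methotrexate and fitness is read by barcode sequencing in up to three cultures.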
On to B1, for which the yeast fitness gain is inactive: 0.0566.

As for B2, the yeast fitness gain was inactive: 0.0484.

On to B3, for which the yeast fitness gain is inactive: 0.0419.

Take B4: the yeast fitness gain was inactive: 0.0238.

On to B5, for which the yeast fitness gain is inactive: 0.0122.

The target in another experiment is SARS-CoV-2 NSP2. Described as above. The method, then: as §1
Regarding B1, the yeast fitness gain was inactive: -0.301.

Regarding B2, the yeast fitness gain is inactive: -0.154.

Turning to B3, the yeast fitness gain is active: 0.468.

With B5, the yeast fitness gain is inactive: -0.102.

The next experiment concerns the target SARS-CoV-2 NSP7. Described as above. The method, then: as §1
Consider B1, for which the yeast fitness gain is inactive: 0.000599.

With B3, the yeast fitness gain is inactive: -0.0656.

Turning to B5, the yeast fitness gain is inactive: -0.107.

The next experiment has as its target SARS-CoV-2 ORF10. The description is as above. The method, then: as §1
In the case of B1, the yeast fitness gain was inactive: -0.00092.

For the molecule B3, the yeast fitness gain was inactive: -0.0983.

As to B4, the yeast fitness gain was inactive: -0.24.

As for B5, the yeast fitness gain is inactive: 0.0345.

The next experiment addresses SARS-CoV-2 ORF3B. The experiment is described as above. The method, then: as §1
Regarding B1, the yeast fitness gain is inactive: -0.386.

Regarding B2, the yeast fitness gain is inactive: -0.0883.

Consider B3, for which the yeast fitness gain was inactive: -0.037.

Consider B5, for which the yeast fitness gain was inactive: 0.103.

For a further experiment, the target named is SARS-CoV-2 ORF8. The description is as above. The method, then:
as §1
Take B1: the yeast fitness gain was inactive: 0.0452.

Regarding B2, the yeast fitness gain is inactive: -0.0652.

Regarding B3, the yeast fitness gain is inactive: 0.0231.

Regarding B4, the yeast fitness gain is inactive: -0.0757.

As for B5, the yeast fitness gain was inactive: -0.0181.

For another experiment, the target named is SARS-CoV-2 ORF9B. The description is as above. The method, then: as §1
On to B1, for which the yeast fitness gain was inactive: -0.0736.

With B2, the yeast fitness gain is inactive: 0.0672.

Regarding B3, the yeast fitness gain is inactive: -0.0237.

As for B4, the yeast fitness gain was inactive: 0.00804.

Take B5: the yeast fitness gain was inactive: -0.0981.

A further experiment addresses SARS-CoV-2 NSP12. The experiment is described as above. The method, then:
as §1
As to B2, the yeast fitness gain is inactive: -0.0844.

Take B3: the yeast fitness gain was inactive: -0.034.

On to B5, for which the yeast fitness gain was inactive: -0.0193.

The next experiment concerns the target SARS-CoV-2 NSP13. The experiment is described as above. The method, then:
as §1
Regarding B2, the yeast fitness gain is inactive: 0.0331.

On to B3, for which the yeast fitness gain was inactive: 0.0309.

With B4, the yeast fitness gain was inactive: -0.397.

Consider B5, for which the yeast fitness gain was inactive: -0.163.

The next experiment has as its target SARS-CoV-2 NSP6. The description is as above. The method, then:
as §1
B2: the yeast fitness gain was inactive: 0.106.

On to B3, for which the yeast fitness gain is inactive: -0.129.

Another experiment deals with SARS-CoV-2 NSP8. The experiment is described as above. The method, then:
as §1
Consider B2, for which the yeast fitness gain was inactive: 0.0462.

As to B5, the yeast fitness gain was inactive: 0.0175.

In another experiment the target is SARS-CoV-2 ORF6. Described as above. The method, then:
as §1
B2: the yeast fitness gain was inactive: -0.0184.

For the molecule B3, the yeast fitness gain was inactive: -0.0283.

Regarding B5, the yeast fitness gain was inactive: -0.0704.

Another experiment addresses SARS-CoV-2 ORF7A. Described as above. The method, then:
as §1
In the case of B2, the yeast fitness gain was inactive: 0.0141.

With B3, the yeast fitness gain is inactive: -0.115.

The next experiment has as its target SARS-CoV-2 S. Described as above. The method, then: as §1
With B2, the yeast fitness gain is inactive: -0.0342.

On to B3, for which the yeast fitness gain is inactive: -0.00122.

B4: the yeast fitness gain is inactive: -0.0361.

Another experiment addresses SARS-CoV-2 NSP1. The experiment is described as above. The method, then:
as §1
On to B3, for which the yeast fitness gain is inactive: 0.0908.

The target in the next experiment is SARS-CoV-2 NSP14. The description is as above. The method, then:
as §1
On to B3, for which the yeast fitness gain was inactive: -0.0832.

As for B5, the yeast fitness gain was inactive: -0.0252.

The target of a further experiment is SARS-CoV-2 NSP4. The experiment is described as above. The method, then: as §1
Consider B3, for which the yeast fitness gain was inactive: -0.29.

Regarding B5, the yeast fitness gain was inactive: -0.0631.

A further experiment deals with SARS-CoV-2 NSP9. The description is as above. The method, then:
as §1
For B3, the yeast fitness gain was inactive: 0.00745.

For another experiment, the target named is SARS-CoV-2 ORF7B. The description is as above. The method, then: as §1
As to B3, the yeast fitness gain was inactive: -0.0664.

B4: the yeast fitness gain is inactive: 0.11.

Consider B5, for which the yeast fitness gain is inactive: -0.11.

The target of a further experiment is SARS-CoV-2 NSP5. The experiment is described as above. The method, then:
as §1
Regarding B4, the yeast fitness gain was inactive: 0.0234.

As to B5, the yeast fitness gain is inactive: -0.0442.
